# Assay results taken from PubChem BioAssay AID1745845 (National Center for Advancing Translational Sciences (NCATS), 2022).
# The whole screen tested about 360,000 compounds, of which about 2,600 (0.72%) were called active. Inconclusive means that the source gave no clear call. Such entries were picked first, then a sample of the others. Calls follow the shape of the dose curve; as a rule, active = well fitted inhibition curve with a large enough effect; inconclusive = small, poorly fitted or top-dose-only effect; inactive = no such curve, though single readings can be large or run the other way. Where the call is inconclusive, the potency comes from a doubtful curve fit.
# Test: Primary qHTS for Inhibitors of ATXN expression; also: nearly all actives have a fitted effect of over 55% in size
# Conditions: HEK-293 ATXN2-luciferase reporter, luminescence, 24 h; activity change, negative = inhibition: at 57 µM (top of the series)
# Outline: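 qHTS (up to 57 uM final) was run with 24 h compound exposure of reporter cells at 37 °C. Each well was multiplexed: SteadyGlo luminescence measured ATXN2-luciferase expression after a fluorogenic Gly-Phe-AFC viability readout (25 uM final).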
# % is scaled to controls: 0 for no effect and ±100 for the full control effect; potency is read from the fitted curve at half-maximal effect; tags tell the direction and shape of the fitted curve.
Structure (SMILES),Potency,"activity change, negative = inhibition"
NC(=NCCCCCCN=C(N)N=C(N)Nc1ccc(Cl)cc1)N=C(N)Nc1ccc(Cl)cc1,"inconclusive: 43.2 µM [inhibitor, single point]",–
O=C(CCc1ccccc1)N1CCN(c2ccc([N+](=O)[O-])cc2)CC1,"inconclusive: 1.5 µM [inhibitor, full curve]",–
CCCN1CNC(=S)N(c2cc(C)ccc2C)C1,inactive,–
COc1ccc2[nH]c3c(c2c1)CCN1C(=O)C(CC(=O)NCC24CC5CC(CC(C5)C2)C4)C[C@H](C(=O)N2CCOCC2)[C@@]31C (stereo partly drawn),inactive,–
NC(c1csc(Nc2ccccn2)n1)C1CCCCC1 (stereo not drawn),"inconclusive: 25.1 µM [inhibitor, partial curve]",–
C#CCOCCOCCOCCNc1nc(N2CCN(C(=O)CCCCCCCCCCNC(=O)Cn3cc(C[C@@H](C)O)nn3)CC2)nc(N2CCN(C(=O)CCCCCCCCCCNC(=O)[C@H](CO)n3cc(CCCSC)nn3)CC2)n1,inactive,–
NNC(=O)c1csc(Cc2c(Cl)sc3ccc(Cl)cc23)n1,inactive,–
Cc1ccc(Cn2nnc3c(=O)[nH]c(C4CCN(S(=O)(=O)Cc5ccccc5)CC4)nc32)cc1,"inconclusive: 39.8 µM [inhibitor, single point]",–
CC(=O)Nc1ccc(NC2=C/C(=N/S(=O)(=O)c3cccs3)c3ccccc3C2=O)cc1,active: 15.8 µM,–
OC1(c2ccc(Cl)c(C(F)(F)F)c2)CCN(CCCC(c2ccc(F)cc2)c2ccc(F)cc2)CC1,active: 15.8 µM,–
O=C(CCCCCN1C(=O)c2cccc3cccc(c23)C1=O)NCc1cccnc1,inactive,–
COc1ccccc1N(CC(=O)Nc1cccc(C(F)(F)F)c1)S(C)(=O)=O,inactive,–
COc1ccc(C2C3=C(CCCC3=O)Nc3ccc4ncccc4c32)cc1OC (stereo not drawn),inactive,–
CO[C@H]1C[C@@H]2CC[C@@H](C)[C@@](O)(O2)C(=O)C(=O)N2CCCC[C@@H]2C(=O)O[C@H]([C@H](C)C[C@@H]2CC[C@H](OC(=O)C(C)(CO)CO)[C@H](OC)C2)CC(=O)[C@H](C)C=C(C)[C@@H](O)[C@@H](OC)C(=O)[C@H](C)C[C@H](C)C=CC=CC=C1C,"inconclusive: 38.5 µM [inhibitor, single point]",–
CC(=O)OCC1OC(Sc2cccc3cccnc23)C(OC(C)=O)C(OC(C)=O)C1OC(C)=O (stereo not drawn),inactive,–
N#C/C(=C/c1ccccc1)C(=O)NCc1ccccc1,inactive,–
CCCCCn1c(SCCC(C)C)nc2c1c(=O)[nH]c(=O)n2C,"inconclusive: 25.1 µM [inhibitor, single point]",–
COc1cc(O)cc(O)c1C(=O)/C=C/c1ccccc1,"inconclusive: 28.2 µM [inhibitor, single point]",–
Cc1ccc2nc(Cl)c(C3CC(c4cccs4)=NN3C(=O)CCCC(=O)O)cc2c1 (stereo not drawn),inactive,–
CCc1ccccc1Nc1nn2c(=O)c3ccc(C(=O)NCCc4ccccc4)cc3nc2s1,"inconclusive: 1.58 µM [inhibitor, full curve]",–
Cc1ccc(Cc2c(C3CCCCC3)nc3ccc(C)cn23)cc1,active: 15.8 µM,–
COc1ccc(/C=C\c2nc(=O)c3ccccc3o2)cc1,"inconclusive: 39.8 µM [inhibitor, single point]",–
CCOC(=O)c1cnc(-n2nc(C)cc2C)nc1NCc1ccccc1,"inconclusive: 31.6 µM [inhibitor, single point]",–

Structure (SMILES),Potency,"activity change, negative = inhibition"
COc1cc(Br)cc(/C=N/NC(=O)Cc2ccccc2)c1O,"inconclusive: 13.4 µM [inhibitor, partial curve, poor fit]",–
COc1ccc(CN2C3CCC2CC(NC(=O)c2cc(OC)c(OC)c(OC)c2)C3)cc1 (stereo not drawn),–,inconclusive: -44.5% [inhibitor]
Cc1[nH]n(-c2nc(-c3ccc(Cl)cc3)cs2)c(=O)c1N=Nc1ccc(O)cc1,"inconclusive: 39.8 µM [inhibitor, single point]",–
CCN1c2ccccc2NC2N=C(OC)C(c3ccccc3)C21 (stereo not drawn),"inconclusive: 20 µM [inhibitor, partial curve, poor fit]",–
O=C(Cn1nnc(-c2ccccc2Cl)n1)Nc1cccc(S(=O)(=O)N2CCCC2)c1,"inconclusive: 39.8 µM [inhibitor, single point]",–
CCOC(=O)c1c(C)oc2nc(C)nc(N3CCN(c4ccc(C)cc4C)CC3)c12,inactive,–
O=C(O)COc1ccc2oc3ccccc3c2c1,"inconclusive: 37.7 µM [inhibitor, single point]",–
CCN(Cc1ccccc1)S(=O)(=O)c1ccccc1Br,inactive,–
Cc1ccc(C)c(-n2sc3ccc(F)cc3c2=O)c1,"inconclusive: 39.8 µM [inhibitor, single point]",–
CCOc1ccc(CCNC(=O)C2CCCN(c3nnc(C)c4c(C)n(-c5ccccc5)nc34)C2)cc1 (stereo not drawn),"inconclusive: 22.4 µM [inhibitor, partial curve, poor fit]",–
COc1cccc(N(C(=O)CCl)C(C(=O)NCCc2ccccc2)c2cccs2)c1 (stereo not drawn),"inconclusive: 28.2 µM [inhibitor, single point]",–
O=C(N/N=C/c1ccc([N+](=O)[O-])o1)c1cc(-c2cccc(Br)c2)nc2ccccc12,"inconclusive: 35.5 µM [inhibitor, single point]",–
COc1ccc(CC(=O)Nc2cccc(-c3nnc(-c4ccc(C)cc4)o3)c2)cc1OC,"inconclusive: 5.01 µM [inhibitor, full curve, poor fit]",–
COc1ccc(S(=O)(=O)NCCc2ccccc2)cc1OC,inactive,–
Cc1cccc(C)c1NC(=O)c1ccc(-c2cc(F)ccc2F)o1,inactive,–
c1ccc(Nc2nc(N3CCCCC3)nc(N3CCNCC3)n2)cc1,"inconclusive: 20 µM [inhibitor, partial curve]",–
O=c1c2cc(N3CCOCC3)ccc2[nH]c(=S)n1Cc1ccccc1Cl,–,inactive: -4.72% [at 11.3 µM]
COc1ccccc1NC(=O)N(C)C[C@@H]1OCc2cn(nn2)CCCC(=O)N([C@@H](C)CO)C[C@H]1C,inactive,–
Cc1oc2c(c1C(=O)c1ccc(Cl)cc1)C(=O)C(=O)c1ccccc1-2,active: 5.62 µM,–
CCc1ccc(OCC(=O)NNC(=S)NC(=O)C2CC2)c(Br)c1,"inconclusive: 12.6 µM [inhibitor, partial curve, poor fit]",–
CC(C)c1onc(C(=O)N2CCN(c3ccc(F)cc3)CC2)c1[N+](=O)[O-],inactive,–
CCNC(=S)N/N=C/c1cn(Cc2ccc(F)cc2)c2ccccc12,"inconclusive: 39.8 µM [inhibitor, single point]",–
CCOc1cc(-c2nc(-c3ccccc3)c(-c3cc([N+](=O)[O-])ccc3C)[nH]2)ccc1O,inactive,–

Structure (SMILES),Potency,"activity change, negative = inhibition"
COc1cccc(/C=C2/SC(=S)N(CCCC(=O)Nc3ccc(O)cc3)C2=O)c1,active: 15.8 µM,–
O=C(c1cccc(S(=O)(=O)N2CCN(c3ccc(F)cc3)CC2)c1)N1CCCC1,"inconclusive: 1.26 µM [inhibitor, full curve]",–
N#CC1=C(N)Oc2n[nH]c(-c3ccccc3)c2C1c1cccnc1 (stereo not drawn),inactive,–
CCc1ccc(C(C)NC(=S)NC2CCCCC2)cc1 (stereo not drawn),inactive,–
COc1ccc(/C=C/C(O)=C2/C(=O)N(C)C3(C)CC2c2ccccc2O3)cc1 (stereo not drawn),"inconclusive: 22.4 µM [inhibitor, single point]",–
COc1ccc(Br)cc1Cn1nnc(C(=O)Nc2ccc3c(c2)OCCO3)c1N,"inconclusive: 10 µM [inhibitor, partial curve, poor fit]",–
CCOc1cc(/C=C/c2cccc[n+]2C)ccc1O,–,inconclusive: -41.8% [inhibitor]
O=C(NCc1ccncc1)[C@@H]1CCCN1C(=O)[C@@H]1CCCN1C(=O)c1ccccc1,inactive,–
CC(CC12CC3CC(CC(C3)C1)C2)NCc1ccccc1O (stereo not drawn),inactive,–
COc1cccc2sc(N3CCN(C(=O)c4ccc([N+](=O)[O-])o4)CC3)nc12,"inconclusive: 10 µM [inhibitor, partial curve, poor fit]",–
CCN(C(=O)C1CCCN(S(=O)(=O)c2c(C)noc2/C=C/N(C)C)C1)c1cccc(C)c1 (stereo not drawn),"inconclusive: 35.5 µM [inhibitor, single point]",–
C=C(C)C(=O)OCC(O)COc1ccc(C(C)(C)c2ccc(OCC(O)COC(=O)C(=C)C)cc2)cc1 (stereo not drawn),"inconclusive: 31.6 µM [inhibitor, partial curve, poor fit]",–
CCOC(=O)c1ccc(NC(=O)CC2C(=O)OCCN2CC)cc1 (stereo not drawn),inactive,–
COc1cc(OC)cc(C(=O)Nn2cnnc2)c1,inactive,–
COc1cc(C)ccc1NC(=O)Cc1csc(NC(=O)Nc2ccccc2OC)n1,"inconclusive: 39.8 µM [inhibitor, single point]",–
Nc1c(C(=O)Nc2ccc3c(c2)OCCO3)nnn1Cc1cccc(Br)c1,inactive,–
CCc1ccc(CN(Cc2ccco2)c2cnc(S(C)(=O)=O)nc2C(=O)Nc2ccccc2Cl)cc1,inactive,–
COc1ccc(Br)cc1CNC(=O)c1cc2n(n1)CCCN(Cc1ccc(C)cc1)C2=O,inactive,–
CC(C)CC(N)c1csc(Nc2ccc(C(F)(F)F)cn2)n1 (stereo not drawn),"inconclusive: 35.5 µM [inhibitor, single point]",–
CC(C)(C)NC(=O)C[C@H]1C[C@H](C(=O)N2CCOCC2)[C@@]2(CCC3CCCC3)c3[nH]c4ccc(Cl)cc4c3CCN2C1=O,"inconclusive: 39.8 µM [inhibitor, single point]",–
COc1ccccc1C1CCN(Cc2ccc3ccccc3c2)CC1,"inconclusive: 26.7 µM [inhibitor, partial curve]",–
COc1ccc(-c2nc(-c3ccc4c(c3)OCO4)[nH]c2-c2ccc(OC)cc2)cc1,inactive,–
